# Several values for one entry are separate records, joined by “and”; a condition that tells them apart may be missing. Equal entries are not always repeated. Inconclusive results, whose numbers are uncertain, are shown with a selection of clear calls. For some of these results: Potencies of inconclusive entries are doubtful fits and often do not repeat. Activity calls are given as the source filed them. Unless noted, the call rests on the fitted dose curve; in most records, active means well fitted curve in the direction sought with a large enough effect in the repeat runs; inconclusive means weak or mixed curves; inactive means no such curve, though single readings can be large; an effect the other way counts as inactive or inconclusive.
# Legend:
# [1] = qHTS RealTime-Glo MT Cell Viability Assay in HepG2 cells - 16 hour (AID 1224885); further: nearly all actives have a fitted effect of over 50% in size
# Outline: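 HepG2 cells were seeded at 600 cells/well together with NanoLuc luciferase and a cell-permeant prosubstrate, preincubated 5 h at 37 C/5% CO2, then pin-dosed with compounds in DMSO. Nonlytic luminescence from viable cells was read at each time point.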
# [2] = qHTS RealTime-Glo MT Cell Viability Assay in HEK293 cells - 8 hour (AID 1224887); further: nearly all actives have a fitted effect of over 50% in size
# Outline: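 Luminescence readout at each listed time point; HEK293, 600 cells/well, RealTime-Glo MT reagent added with cells; compounds pinned (23 nL in DMSO) after 5 h at 37 C; continuous culture at 37 C.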
# [3] = A CellTox Green Cytotoxicity Assay to monitor cytotoxicity in HEK293 cells - 16 hour (AID 1224888); further: nearly all actives have a fitted effect of over 35% in size
# Outline: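 Read-out: fluorescence of a cell-impermeant cyanine dye staining DNA of dead cells, proportional to cytotoxicity. HEK293, 600 cells/well with reagent, compound (23 nL DMSO) added after 5 h; reads at 0, 8, 16, 24, 32, 40 h.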
# [4] = A CellTox Green Cytotoxicity Assay to monitor cytotoxicity in HepG2 cells - 8 hour (AID 1224890); further: nearly all actives have a fitted effect of over 45% in size
# Outline: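 HepG2, 600 cells/well premixed w/ CellTox Green; 5 h settle, 37 C/5% CO2; pintool cpd add (DMSO); 37 C, 40 h; fluorescence read at 0, 8, 16, 24, 32, 40 h.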
# [5] = qHTS assay to identify small molecule antagonists of the androgen receptor (AR) signaling pathway using the MDA cell line in the presence of 0.5 nM R1881 - cell viability counter screen (AID 1259242); further: nearly all actives have a fitted effect of over 45% in size
# Outline: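 Live-cell protease fluorescence, CellTiter-Fluor, 30 min at 37C. Cells: MDA-kb2, 3,000/well, preincubated 5 hr. Compounds plus 0.5 nM R1881 final, 16 hr, 37C, 0% CO2.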
# [6] = qHTS assay to identify small molecule antagonists of the sonic hedgehog signaling (Shh) pathway (AID 1259369; calls by dose curve; further: nearly all actives have a fitted effect of over 45% in size)
# Outline: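 Luminescence readout: firefly Luc under Gli1 response element in 3T3Gli1-Luc cells (NIH/3T3 clone). Antagonist mode, stimulation by conditioned medium; compound exposure 24hr at 37 C, 5% CO2.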
# [7] = biological target: Estrogen receptor beta (Homo sapiens) (UniProt Q92731); assay: qHTS assay to identify small molecule agonists of the estrogen receptor beta (ER-beta) signaling pathway (AID 1259377; active means well fitted activation curve with a large enough effect in the signal ratio in the repeat runs, not every such curve was filed as active; inconclusive means weak or mixed curves, or effect the other way; the % refers to the signal ratio; on activation: on the % scale 0 is the no-effect control and ±100 the full control effect); conditions: ER-beta-UAS-bla HEK293T, beta-lactamase FRET ratio, 16 h; activation: at 92.4 µM (top of the series) unless noted
# Outline: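 Screening used GripTite ER-beta-UAS-bla cells held in 2% charcoal-stripped FBS medium. After overnight (16 hr) compound incubation at 37C, beta-lactamase activity was detected with a FRET substrate by fluorescence.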
# [8] = biological target: Estrogen receptor beta (Homo sapiens) (UniProt Q92731); assay: qHTS assay to identify small molecule antagonists of the estrogen receptor beta (ER-beta) signaling pathway (AID 1259378; active means well fitted inhibition curve with a large enough effect in the signal ratio in the repeat runs, not every such curve was filed as active; inconclusive means weak or mixed curves, or effect the other way; inactive means no such curve, though single readings can be large or run the other way; the % refers to the signal ratio; on activity, negative = inhibition: on the % scale 0 is the no-effect control and ±100 the full control effect); conditions: ER-beta-UAS-bla HEK293T, beta-lactamase FRET ratio, 16 h; activity, negative = inhibition: at 92.4 µM (top of the series) unless noted
# Outline: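 Antagonist mode: compounds added to beta-lactamase reporter HEK293T ER-beta-UAS cells stimulated with E2 (1nM final), 16 hr at 37C. LiveBLAzer B/G FRET substrate, 2 hours room temperature, fluorescence read-out.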
# [9] = qHTS assay to identify small molecule agonists of the androgen receptor (AR) signaling pathway in the presence of an antagonist - cell viability counter screen (AID 1259379); further: nearly all actives have a fitted effect of over 25% in size
# Outline: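 Viability counter screen: CellTiter-Fluor fluorescence, measured in the same wells as the luciferase read-out. MDA-kb2 cells, 3,000/well, with nilutamide at 3.0uM final and compounds at 15 concentrations, 16 hr at 37C, 0% CO2.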
# [10] = qHTS RealTime-Glo MT Cell Viability Assay in HEK293 cells - 24 hour (AID 1224886); further: nearly all actives have a fitted effect of over 50% in size
# Outline: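 HEK293 cells were seeded at 600 cells/well together with NanoLuc luciferase and cell-permeant prosubstrate, preincubated 5 h at 37 C/5% CO2, then given compound in DMSO by pintool. Luminescence from viable-cell prosubstrate reduction was read repeatedly over 40 h.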
# [11] = qHTS assay to identify small molecule HDAC inhibitors - cell viability counter screen (AID 1259365); further: nearly all actives have a fitted effect of over 50% in size
# Outline: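 To flag cytotoxic hits, 1,500 wild-type HCT-116 cells per well, plated the day before, receive test compounds for 2hr at 37 C before CellTiter-Glo reagent and a luminescence read.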
# [12] = qHTS assay to identify small molecule antagonists of the estrogen receptor alpha (ER-alpha) signaling pathway using the BG1 cell line in the presence of 0.1 nM 17-beta-estradiol - cell viability counter screen (AID 1259241); further: nearly all actives have a fitted effect of over 40% in size
# Outline: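 CellTiter-Fluor read (30 min, 37C) on ER-alpha/ERE-luc VM7Luc4E2 cells; 22 hr compound treatment; agonist 0.1 nM E2 final; same-well multiplex.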
# [13] = qHTS assay to identify small molecule HDAC inhibitors (AID 1259364);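 further: wild-type HCT-116 cells with endogenous class I/II HDAC activity; nearly all actives have a fitted effect of over 45% in size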
# Outline: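 HCT-116 (wild type), 1,500 cells/well, overnight; compound 2 hr 37C 5% CO2; HDAC-Glo I/II reagent 30 min RT; luminescence readout.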
# [14] = biological target: Estrogen receptor (Homo sapiens) (UniProt P03372); assay: qHTS assay to identify small molecule antagonists of the estrogen receptor alpha (ER-alpha) signaling pathway using the BG1 cell line in the presence of 0.1 nM 17-beta-estradiol (AID 1259244); further: nearly all actives have a fitted effect of over 50% in size
# Outline: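 Luminescence after ONE-Glo (30 min, room temperature) measured ERE-luciferase activity in VM7Luc4E2 cells treated 22 h with compound and 0.1 nM final 17beta-estradiol as stimulator.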
# [15] = qHTS assay to identify small molecule agonists of the sonic hedgehog signaling (Shh) pathway - cell viability counter screen (AID 1259366); further: nearly all actives have a fitted effect of over 50% in size
# Outline: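 Fluorescence from CellTiter-Fluor reports live cells in this counter screen. NIH/3T3-derived Gli1-Luc reporter cells receive test compounds for 24hr at 37C; reagent goes in at 23hr.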
# [16] = qHTS assay to identify small molecule antagonists of the sonic hedgehog signaling (Shh) pathway - cell viability counter screen (AID 1259367); further: nearly all actives have a fitted effect of over 55% in size
# Outline: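 Viability was read by CellTiter-Fluor fluorescence in the same wells, reagent added 23 hr into compound treatment and incubated 1 hr at 37C. The 3T3 Gli1-Luc reporter cells (2,000/well) received conditioned medium after compound and ran 24 hr.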
# Potency means the concentration at half of the fitted maximal effect; tags describe the fitted curve by direction and shape or compound fluorescence and quenching.
# Sequence of UniProt Q92731 (Q92731 whole entry, looked up): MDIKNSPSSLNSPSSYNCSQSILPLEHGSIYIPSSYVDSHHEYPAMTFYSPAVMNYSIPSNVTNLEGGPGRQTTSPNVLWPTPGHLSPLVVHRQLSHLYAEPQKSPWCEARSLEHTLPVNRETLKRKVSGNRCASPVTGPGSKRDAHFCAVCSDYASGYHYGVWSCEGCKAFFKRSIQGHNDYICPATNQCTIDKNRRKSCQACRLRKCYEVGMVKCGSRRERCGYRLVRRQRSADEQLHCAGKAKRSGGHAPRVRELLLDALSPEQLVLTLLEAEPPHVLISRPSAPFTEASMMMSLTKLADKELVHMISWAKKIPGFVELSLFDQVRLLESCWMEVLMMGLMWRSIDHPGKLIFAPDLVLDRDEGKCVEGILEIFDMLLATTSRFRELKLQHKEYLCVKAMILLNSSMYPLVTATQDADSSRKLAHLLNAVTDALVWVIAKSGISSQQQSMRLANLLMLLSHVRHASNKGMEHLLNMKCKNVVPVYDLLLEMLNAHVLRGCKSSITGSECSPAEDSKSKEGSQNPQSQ
# Sequence of UniProt P03372 (P03372 whole entry, looked up): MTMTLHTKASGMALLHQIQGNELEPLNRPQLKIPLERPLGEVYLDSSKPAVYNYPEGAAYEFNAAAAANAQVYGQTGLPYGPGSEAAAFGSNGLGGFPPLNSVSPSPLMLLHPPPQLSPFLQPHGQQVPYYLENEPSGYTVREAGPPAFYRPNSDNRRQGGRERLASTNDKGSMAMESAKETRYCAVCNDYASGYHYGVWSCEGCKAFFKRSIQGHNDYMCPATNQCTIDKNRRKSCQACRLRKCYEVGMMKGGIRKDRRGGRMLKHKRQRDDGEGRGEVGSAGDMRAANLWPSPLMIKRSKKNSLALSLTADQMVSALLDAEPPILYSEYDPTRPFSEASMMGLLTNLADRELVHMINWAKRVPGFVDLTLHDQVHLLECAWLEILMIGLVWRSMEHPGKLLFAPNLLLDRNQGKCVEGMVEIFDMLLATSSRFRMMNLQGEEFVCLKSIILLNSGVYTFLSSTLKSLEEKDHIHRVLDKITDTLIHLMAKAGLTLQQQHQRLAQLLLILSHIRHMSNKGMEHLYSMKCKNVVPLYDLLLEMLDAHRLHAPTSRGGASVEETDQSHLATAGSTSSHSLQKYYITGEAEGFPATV
structure (smiles),measurement,setting,value
ClC1=C(Cl)C2(Cl)C3C(Cl)C=CC3C1(Cl)C2(Cl)Cl (stereo unspecified),Potency,[1],"inconclusive: 55.2 µM [cytotoxic, single point] and inconclusive: 54.9 µM [cytotoxic, single point]"
same,Potency,[2],active: 43.8 µM and active: 43.6 µM
same,Potency,[3],active: 55.2 µM and active: 49 µM
same,Potency,[4],"inconclusive: 55.2 µM [activator, single point] and inconclusive: 54.9 µM [activator, single point]"
same,Potency,[5],"inconclusive: 68.9 µM [cytotoxic, partial curve, poor fit]"
same,Potency,[6],"inconclusive: 68.9 µM [inhibitor] and inconclusive: 77 µM [inhibitor, partial curve, poor fit]"
same,Potency,[7],"inconclusive: 68.9 µM [falling, single point]"
same,Potency,[8],"inconclusive: 30.8 µM [inhibitor, partial curve]"
same,"activity, negative = inhibition",[8],inconclusive: -29.8%
same,Potency,[9],inconclusive: 68.9 µM [cytotoxic]
CCC[CH2][Sn]([Cl])([CH2]CCC)[CH2]CCC,Potency,[1],active: 2.19 µM and active: 692 nM
same,Potency,[10],active: 347 nM and active: 549 nM
same,Potency,[11],active: 19.4 µM and active: 17.2 µM
same,Potency,[6],"active: 307 nM and inconclusive: 5.4 nM [inhibitor, full curve]"
O=C(N[C@@H]1N=C(c2ccccc2F)c2cccc3c2N(CC3)C1=O)c1cc2ccccc2[nH]1,Potency,[1],"inconclusive: 10.7 µM [cytotoxic, partial curve]"
same,Potency,[2],inactive
same,Potency,[4],active: 21.3 µM
same,Potency,[12],"inconclusive: 33.5 µM [rising, single point]"
same,Potency,[13],"inconclusive: 33.5 µM [inhibitor, partial curve, poor fit]"
same,Potency,[7],inactive
same,Potency,[9],inactive
Cc1nnc2n1-c1sc(CCc3ccc(CC(C)C)cc3)cc1C(c1ccccc1Cl)=NC2C (stereo unspecified),Potency,[1],"inconclusive: 23.9 µM [cytotoxic, partial curve]"
same,Potency,[2],active: 21.3 µM
same,Potency,[5],"inconclusive: 33.5 µM [cytotoxic, single point]"
same,Potency,[14],active: 29.8 µM
same,Potency,[15],inconclusive: 33.5 µM [cytotoxic]
same,Potency,[8],"inconclusive: 11.9 µM [rising, partial curve, poor fit]"
same,Potency,[9],"inconclusive: 33.5 µM [cytotoxic, single point]"
CN(C)C(=S)SSC(=S)N(C)C,Potency,[1],active: 48.3 µM and active: 1.74 µM and active: 2.68 µM
same,Potency,[2],"active: 43 µM and active: 27.5 µM and inconclusive: 23.9 µM [cytotoxic, partial curve, poor fit]"
same,Potency,[3],"active: 43 µM and active: 38.9 µM and inconclusive: 42.5 µM [activator, single point]"
same,Potency,[4],"inconclusive: 60.8 µM [activator, single point] and inconclusive: 54.9 µM [activator, single point] and inconclusive: 26.8 µM [activator, single point]"
same,Potency,[12],active: 676 nM and active: 6.86 µM and active: 266 nM
same,Potency,[5],"inconclusive: 0.211 µM [cytotoxic, full curve]"
same,Potency,[14],active: 191 nM and active: 273 nM and active: 237 nM
same,Potency,[13],"inconclusive: 7.7 µM [inhibitor, full curve] and inconclusive: 4.73 µM [inhibitor, full curve]"
same,Potency,[16],active: 191 nM and active: 611 nM and active: 1.19 µM
same,Potency,[6],active: 47.9 nM and active: 306 nM and active: 531 nM
C#CCOS(=O)OC1CCCCC1Oc1ccc(C(C)(C)C)cc1 (stereo unspecified),Potency,[1],"inconclusive: 21.9 µM [cytotoxic, partial curve] and inconclusive: 19.5 µM [cytotoxic, partial curve]"
same,Potency,[2],"inconclusive: 19.5 µM [cytotoxic, partial curve] and active: 17.4 µM"
same,Potency,[12],"inconclusive: 24.3 µM [cytotoxic, partial curve]"
same,Potency,[5],"inconclusive: 5.45 µM [cytotoxic, full curve] and active: 6.11 µM"
same,Potency,[15],active: 24.4 µM and active: 54.5 µM
same,Potency,[16],active: 21.7 µM and active: 27.3 µM
same,Potency,[8],active: 5.45 µM and active: 4.86 µM
same,Potency,[9],active: 5.45 µM
